# Measurements: the supplement of paper PMC8728848
# The list shows a part of the results.
# Experiments:
# Assay in all cases: glycan array binding signal (z-score within array); higher = stronger binding
# Conditions in all cases: glycan notation: IUPAC condensed, linker removed
# [1] = biological target: Gal(b1-4)GlcNAc(b1-2)[Gal(b1-4)GlcNAc(b1-6)]Man(a1-6)[GlcNAc(b1-4)][Gal(b1-4)GlcNAc(b1-2)Man(a1-3)]Man(b1-4)GlcNAc(b1-4)GlcNAc
# Summary of the method: (§1)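 The binding signal is a Z-score computed within each array. Data were drawn from 3228 arrays in the Consortium for Functional Glycomics database, restricted to those with a known protein sequence. Scores were averaged over arrays of the same protein sequence at different concentrations or buffers, and over linkers, and negative values can be taken as non-binding.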
# [2] = biological target: Gal(b1-4)GlcNAc(b1-2)[Gal(b1-4)GlcNAc(b1-6)]Man(a1-6)[GlcNAc(b1-4)][Gal(b1-4)GlcNAc(b1-2)[Gal(b1-4)GlcNAc(b1-4)]Man(a1-3)]Man(b1-4)GlcNAc(b1-4)[Fuc(a1-6)]GlcNAc
# Summary of the method: as §1
# [3] = biological target: Gal(b1-4)GlcNAc(b1-3)Gal(b1-3)GalNAc
# Summary of the method: as §1
# [4] = biological target: Gal(b1-4)GlcNAc(b1-3)Gal(b1-3)GlcNAc
# Summary of the method: as §1
# [5] = biological target: Gal(b1-4)GlcNAc(b1-3)Gal(b1-4)Glc
# Summary of the method: as §1
# [6] = biological target: Gal(b1-4)GlcNAc(b1-3)Gal(b1-4)GlcNAc
# Summary of the method: as §1
# [7] = biological target: Gal(b1-4)GlcNAc(b1-3)Gal(b1-4)GlcNAc(b1-2)Man(a1-3)[Gal(b1-4)GlcNAc(b1-3)Gal(b1-4)GlcNAc(b1-2)Man(a1-6)]Man(b1-4)GlcNAc(b1-4)GlcNAc
# Summary of the method: as §1
# [8] = biological target: Gal(b1-4)GlcNAc(b1-3)Gal(b1-4)GlcNAc(b1-2)Man(a1-3)[Gal(b1-4)GlcNAc(b1-3)Gal(b1-4)GlcNAc(b1-2)Man(a1-6)]Man(b1-4)GlcNAc(b1-4)[Fuc(a1-6)]GlcNAc
# Summary of the method: as §1
# [9] = biological target: Gal(b1-4)GlcNAc(b1-3)Gal(b1-4)GlcNAc(b1-2)[Gal(b1-4)GlcNAc(b1-3)Gal(b1-4)GlcNAc(b1-6)]Man(a1-6)[Gal(b1-4)GlcNAc(b1-3)Gal(b1-4)GlcNAc(b1-2)Man(a1-3)]Man(b1-4)GlcNAc(b1-4)GlcNAc
# Summary of the method: as §1
# [10] = biological target: Gal(b1-4)GlcNAc(b1-3)Gal(b1-4)GlcNAc(b1-2)[Gal(b1-4)GlcNAc(b1-3)Gal(b1-4)GlcNAc(b1-6)]Man(a1-6)[Gal(b1-4)GlcNAc(b1-3)Gal(b1-4)GlcNAc(b1-2)Man(a1-3)]Man(b1-4)GlcNAc(b1-4)[Fuc(a1-6)]GlcNAc
# Summary of the method: as §1
# [11] = biological target: Gal(b1-4)GlcNAc(b1-3)Gal(b1-4)GlcNAc(b1-3)Gal(b1-4)GlcNAc
# Summary of the method: as §1
# [12] = biological target: Gal(b1-4)GlcNAc(b1-3)Gal(b1-4)GlcNAc(b1-3)Gal(b1-4)GlcNAc(b1-2)Man(a1-3)[Gal(b1-4)GlcNAc(b1-3)Gal(b1-4)GlcNAc(b1-3)Gal(b1-4)GlcNAc(b1-2)Man(a1-6)]Man(b1-4)GlcNAc(b1-4)GlcNAc
# Summary of the method: as §1
# [13] = biological target: Gal(b1-4)GlcNAc(b1-3)Gal(b1-4)GlcNAc(b1-3)Gal(b1-4)GlcNAc(b1-2)Man(a1-3)[Gal(b1-4)GlcNAc(b1-3)Gal(b1-4)GlcNAc(b1-3)Gal(b1-4)GlcNAc(b1-2)Man(a1-6)]Man(b1-4)GlcNAc(b1-4)[Fuc(a1-6)]GlcNAc
# Summary of the method: as §1
# [14] = biological target: Gal(b1-4)GlcNAc(b1-3)Gal(b1-4)GlcNAc(b1-3)Gal(b1-4)GlcNAc(b1-2)[Gal(b1-4)GlcNAc(b1-3)Gal(b1-4)GlcNAc(b1-3)Gal(b1-4)GlcNAc(b1-6)]Man(a1-6)[Gal(b1-4)GlcNAc(b1-3)Gal(b1-4)GlcNAc(b1-3)Gal(b1-4)GlcNAc(b1-2)Man(a1-3)]Man(b1-4)GlcNAc(b1-4)[Fuc(a1-6)]GlcNAc
# Summary of the method: as §1
# [15] = biological target: Gal(b1-4)GlcNAc(b1-3)Gal(b1-4)GlcNAc(b1-3)Gal(b1-4)GlcNAc(b1-3)Gal(b1-4)GlcNAc(b1-2)Man(a1-3)[Gal(b1-4)GlcNAc(b1-3)Gal(b1-4)GlcNAc(b1-3)Gal(b1-4)GlcNAc(b1-3)Gal(b1-4)GlcNAc(b1-2)Man(a1-6)]Man(b1-4)GlcNAc(b1-4)GlcNAc
# Summary of the method: as §1
# [16] = biological target: Gal(b1-4)GlcNAc(b1-3)Gal(b1-4)GlcNAc(b1-3)Gal(b1-4)GlcNAc(b1-3)Gal(b1-4)GlcNAc(b1-2)Man(a1-3)[Gal(b1-4)GlcNAc(b1-3)Gal(b1-4)GlcNAc(b1-3)Gal(b1-4)GlcNAc(b1-3)Gal(b1-4)GlcNAc(b1-2)Man(a1-6)]Man(b1-4)GlcNAc(b1-4)[Fuc(a1-6)]GlcNAc
# Summary of the method: as §1
# [17] = biological target: Gal(b1-4)GlcNAc(b1-3)Gal(b1-4)GlcNAc(b1-3)Gal(b1-4)GlcNAc(b1-3)Gal(b1-4)GlcNAc(b1-2)[Gal(b1-4)GlcNAc(b1-3)Gal(b1-4)GlcNAc(b1-3)Gal(b1-4)GlcNAc(b1-3)Gal(b1-4)GlcNAc(b1-6)]Man(a1-6)[Gal(b1-4)GlcNAc(b1-3)Gal(b1-4)GlcNAc(b1-3)Gal(b1-4)GlcNAc(b1-3)Gal(b1-4)GlcNAc(b1-2)Man(a1-3)]Man(b1-4)GlcNAc(b1-4)[Fuc(a1-6)]GlcNAc
# Summary of the method: as §1
# [18] = biological target: Gal(b1-4)GlcNAc(b1-3)Gal(b1-4)GlcNAc(b1-3)Gal(b1-4)GlcNAc(b1-3)Gal(b1-4)GlcNAc(b1-3)Gal(b1-4)GlcNAc(b1-2)Man(a1-3)[Gal(b1-4)GlcNAc(b1-3)Gal(b1-4)GlcNAc(b1-3)Gal(b1-4)GlcNAc(b1-3)Gal(b1-4)GlcNAc(b1-3)Gal(b1-4)GlcNAc(b1-2)Man(a1-6)]Man(b1-4)GlcNAc(b1-4)GlcNAc
# Summary of the method: as §1
# [19] = biological target: Gal(b1-4)GlcNAc(b1-3)Gal(b1-4)GlcNAc(b1-3)Gal(b1-4)GlcNAc(b1-3)Gal(b1-4)GlcNAc(b1-3)Gal(b1-4)GlcNAc(b1-2)Man(a1-3)[Gal(b1-4)GlcNAc(b1-3)Gal(b1-4)GlcNAc(b1-3)Gal(b1-4)GlcNAc(b1-3)Gal(b1-4)GlcNAc(b1-3)Gal(b1-4)GlcNAc(b1-2)Man(a1-6)]Man(b1-4)GlcNAc(b1-4)[Fuc(a1-6)]GlcNAc
# Summary of the method: as §1
# [20] = biological target: Gal(b1-4)GlcNAc(b1-3)Gal(b1-4)GlcNAc(b1-3)Gal(b1-4)GlcNAc(b1-3)Gal(b1-4)GlcNAc(b1-3)Gal(b1-4)GlcNAc(b1-2)[Gal(b1-4)GlcNAc(b1-3)Gal(b1-4)GlcNAc(b1-3)Gal(b1-4)GlcNAc(b1-3)Gal(b1-4)GlcNAc(b1-3)Gal(b1-4)GlcNAc(b1-6)]Man(a1-6)[Gal(b1-4)GlcNAc(b1-3)Gal(b1-4)GlcNAc(b1-3)Gal(b1-4)GlcNAc(b1-3)Gal(b1-4)GlcNAc(b1-3)Gal(b1-4)GlcNAc(b1-2)Man(a1-3)]Man(b1-4)GlcNAc(b1-4)[Fuc(a1-6)]GlcNAc
# Summary of the method: as §1
# [21] = biological target: Gal(b1-4)GlcNAc(b1-3)Gal(b1-4)GlcNAc(b1-3)Gal(b1-4)GlcNAc(b1-3)Gal(b1-4)GlcNAc(b1-3)Gal(b1-4)GlcNAc(b1-3)Gal(b1-4)GlcNAc(b1-2)Man(a1-3)[Gal(b1-4)GlcNAc(b1-3)Gal(b1-4)GlcNAc(b1-3)Gal(b1-4)GlcNAc(b1-3)Gal(b1-4)GlcNAc(b1-3)Gal(b1-4)GlcNAc(b1-3)Gal(b1-4)GlcNAc(b1-2)Man(a1-6)]Man(b1-4)GlcNAc(b1-4)GlcNAc
# Summary of the method: as §1
# [22] = biological target: Gal(b1-4)GlcNAc(b1-3)Gal(b1-4)GlcNAc(b1-3)GalNAc
# Summary of the method: as §1
# [23] = biological target: Gal(b1-4)GlcNAc(b1-3)Gal(b1-4)GlcNAc(b1-3)[Gal(b1-4)GlcNAc(b1-3)Gal(b1-4)GlcNAc(b1-6)]GalNAc
# Summary of the method: as §1
# [24] = biological target: Gal(b1-4)GlcNAc(b1-3)Gal(b1-4)GlcNAc(b1-6)[Gal(b1-3)]GalNAc
# Summary of the method: as §1
# [25] = biological target: Gal(b1-4)GlcNAc(b1-3)Gal(b1-4)[Fuc(a1-3)]GlcNAc(b1-3)Gal(b1-4)[Fuc(a1-3)]GlcNAc
# Summary of the method: as §1
# [26] = biological target: Gal(b1-4)GlcNAc(b1-3)GalNAc
# Summary of the method: as §1
# [27] = biological target: Gal(b1-4)GlcNAc(b1-3)[Fuc(a1-3)GlcNAc(b1-6)]Gal(b1-4)Glc
# Summary of the method: as §1
# [28] = biological target: Gal(b1-4)GlcNAc(b1-3)[Gal(b1-4)GlcNAc(b1-6)]Gal(b1-4)GlcNAc
# Summary of the method: as §1
# [29] = biological target: Gal(b1-4)GlcNAc(b1-3)[GlcNAc(b1-6)]Gal(b1-4)GlcNAc
# Summary of the method: as §1
# [30] = biological target: Gal(b1-4)GlcNAc(b1-6)Gal(b1-4)GlcNAc
# Summary of the method: as §1
# [31] = biological target: Gal(b1-4)GlcNAc(b1-6)GalNAc
# Summary of the method: as §1
# [32] = biological target: Gal(b1-4)GlcNAc(b1-6)[Gal(b1-3)]GalNAc
# Summary of the method: as §1
# [33] = biological target: Gal(b1-4)GlcNAc(b1-6)[Gal(b1-4)GlcNAc(b1-3)]GalNAc
# Summary of the method: as §1
# [34] = biological target: Gal(b1-4)GlcNAc6P
# Summary of the method: as §1
# [35] = biological target: Gal(b1-6)Gal
# Summary of the method: as §1
# [36] = biological target: Gal3S(b1-3)GalNAc
# Summary of the method: as §1
# [37] = biological target: Gal3S(b1-3)GlcNAc
# Summary of the method: as §1
# [38] = biological target: Gal3S(b1-3)[Fuc(a1-4)]GlcNAc
# Summary of the method: as §1
binder,measurement,setting,value
PX14375l-pdi-526-25-526 (Parabacteroides distasonis) (protein) DEEPKSTLTDVAYYKTQSQMESNVNYLYRTGAIGSYVDFGSAYIGPFASIQEELTGYFSNSYEGQEIVCRYTRELTRQQNTMQLASKMDKVWDDCYRGINVANGAIKHMPEVPMDQATADRLTAEAKFFRAFNYFYLVKTFGAVPFYTDPYELAENMELPRTETSTIYNQIESDLKDAMNVLPEATFAANGHRITKYVAAMTLTDVYMYQHKYAEAAETVRIVVNSNHKLTTNDDLAMNSAFNKLRSTDDLDEAIYAYEYDNQISPSNWLPTYAFDGDASSNGLFGTYAITQKVHGPNDRYLNIYESNDLRRQPNQFYHWTYTNPKTGKVWNSVGNAACCWYYYDEDALLTTGRGTKDWNVYRYAEALLDAAESIAQSTGVTAEAAGYLAQVKARANMEGKTAAEIASSLQSMGKQAFIEECWTERLRELPLEFKMWDMCVRTGMFPNISETTPGQVTYIPLVGAKNASGATIKESDLLWPLSVNEIQRNPSLTQNEGYSAK,glycan array binding signal (z-score),[1],-0.253
same,glycan array binding signal (z-score),[2],-0.015
same,glycan array binding signal (z-score),[3],0.063
same,glycan array binding signal (z-score),[4],-0.16
same,glycan array binding signal (z-score),[5],0.067
same,glycan array binding signal (z-score),[6],-0.355
same,glycan array binding signal (z-score),[7],1.38
same,glycan array binding signal (z-score),[8],4.03
same,glycan array binding signal (z-score),[9],4.11
same,glycan array binding signal (z-score),[10],0.091
same,glycan array binding signal (z-score),[11],-0.142
same,glycan array binding signal (z-score),[12],1.72
same,glycan array binding signal (z-score),[13],1.17
same,glycan array binding signal (z-score),[14],0.18
same,glycan array binding signal (z-score),[15],16.7
same,glycan array binding signal (z-score),[16],-0.06
same,glycan array binding signal (z-score),[17],1.05
same,glycan array binding signal (z-score),[18],-0.127
same,glycan array binding signal (z-score),[19],0.149
same,glycan array binding signal (z-score),[20],0.485
same,glycan array binding signal (z-score),[21],0.024
same,glycan array binding signal (z-score),[22],0.445
same,glycan array binding signal (z-score),[23],0.427
same,glycan array binding signal (z-score),[24],-0.398
same,glycan array binding signal (z-score),[25],-0.334
same,glycan array binding signal (z-score),[26],-0.261
same,glycan array binding signal (z-score),[27],-0.241
same,glycan array binding signal (z-score),[28],0.132
same,glycan array binding signal (z-score),[29],-0.154
same,glycan array binding signal (z-score),[30],-0.2
same,glycan array binding signal (z-score),[31],-0.181
same,glycan array binding signal (z-score),[32],-0.282
same,glycan array binding signal (z-score),[33],-0.16
same,glycan array binding signal (z-score),[34],-0.245
same,glycan array binding signal (z-score),[35],-0.432
same,glycan array binding signal (z-score),[36],-0.06
same,glycan array binding signal (z-score),[37],-0.041
same,glycan array binding signal (z-score),[38],-0.094
